Results as given in the supplement of paper PMC10126150.
Sequences with one replicate were seen in a single cluster, so their values are uncertain.

test system: ATP; assay: switch fluorescence ratio, 500 uM ATP over buffer (Cy3 cluster intensity, sum of 5 cycles each) (fold (ratio)); higher = stronger signal-on switching upon ATP binding; sequences stand for … in TCGTCGGCAGCGTCAGATGTGTATAAGAGACAGTTTTTTTTTTTTTTTTTTTTTTTTT…TC; settings: aptamer strand: ATP DNA aptamer (quencher-CACCTGGGGGAGTATTGCGGAGGAAGG + anchor), 100 nM annealed; ATP concentration: 500 uM; one replicate
Outline: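 Per cluster, summed Cy3 intensity from the target cycles was divided by that from the buffer cycles to give the fluorescence ratio, then averaged per switch-domain sequence. Clusters outside 100-1000 RFU were excluded. The Cy3-labelled switching-strand clusters, on a modified Illumina MiSeq flow-cell, were annealed to 100 nM quencher-labelled ATP aptamer and imaged in selection buffer, then after 15 min with 500 uM ATP at 22 °C, for five cycles with NaOH stripping and re-annealing between them.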
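Also: ATP exposure 15 min at 22 °C before imaging.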

Row | Sequence | switch fluorescence ratio
1 | AGGTGTATAG | 1.02
2 | AGGTTAAGGG | 0.962
3 | AGGTTCATGC | 0.942
4 | AGGTTGGACA | 0.991
5 | AGGTTTCGTA | 0.983
6 | AGGTTTGGTC | 1.01
7 | AGGTTTTGGC | 0.961
8 | AGTAAACTT | 1.06
9 | AGTAAATACG | 1.1
10 | AGTAACCACG | 1.03
11 | AGTAACCCGG | 1.06
12 | AGTAACCGT | 1
13 | AGTAAGATGA | 1.05
14 | AGTACCCAGA | 1.03
15 | AGTACGTTTT | 0.968
16 | AGTACTGGTT | 1.02
17 | AGTAGCATGC | 1.07
18 | AGTAGGAACC | 0.978
19 | AGTAGGAATA | 1.03
20 | AGTAGGGGCT | 1.06
21 | AGTAGTGCAC | 1.02
22 | AGTATACTAT | 0.964
23 | AGTATATGAG | 1.02
24 | AGTATATT | 0.978
25 | AGTATTTC | 1.01
26 | AGTCAAACCA | 1.02

Row | Sequence | switch fluorescence ratio
27 | AGTCAACTTT | 1.05
28 | AGTCAAGGGG | 0.955
29 | AGTCACCCGC | 1.1
30 | AGTCAGGAAA | 1
31 | AGTCATAAG | 0.957
32 | AGTCATAGGG | 1.01
33 | AGTCATGGGT | 1.02
34 | AGTCCAGTAA | 1.02
35 | AGTCCATAAT | 1.01
36 | AGTCCGACGT | 1.46
37 | AGTCCGAGG | 0.981
38 | AGTCCGAGGA | 0.959
39 | AGTCCGGGG | 1.02
40 | AGTCCTCCAG | 2.59
41 | AGTCCTTCAC | 1.24
42 | AGTCGACACT | 1.03
43 | AGTCGCATAG | 1.16
44 | AGTCGCGCTG | 0.977
45 | AGTCGGATAA | 0.964
46 | AGTCGGGCAC | 1.01
47 | AGTCGTGATT | 1.01
48 | AGTCTCACAG | 1.03
49 | AGTCTCACCC | 1
50 | AGTCTGATTA | 0.942
51 | AGTCTGCCCG | 1.15
52 | AGTCTGCCTT | 1.06

Row | Sequence | switch fluorescence ratio
53 | AGTCTTGGT | 1.09
54 | AGTCTTGTGA | 1.05
55 | AGTCTTGTTC | 0.985
56 | AGTGACCTTG | 0.996
57 | AGTGACTCCG | 1.32
58 | AGTGACTTCT | 1
59 | AGTGAGGGAG | 0.989
60 | AGTGAGGTAC | 1.05
61 | AGTGAGTTCT | 0.994
62 | AGTGATCGCG | 0.968
63 | AGTGATGGA | 1.01
64 | AGTGCAGGGC | 1.1
65 | AGTGCCATCG | 1.01
66 | AGTGCTAACG | 1.24
67 | AGTGGATTC | 0.958
68 | AGTGGCCCCT | 1.01
69 | AGTGGCGTAG | 0.999
70 | AGTGGGATAC | 1.1
71 | AGTGGGATTC | 1.02
72 | AGTGGGCGGA | 0.951
73 | AGTGGTATAT | 1.01
74 | AGTGGTATTG | 0.99
75 | AGTGGTCCAC | 0.974
76 | AGTGGTGAAC | 1.03
77 | AGTGTACAGT | 1.08
78 | AGTGTAGGGC | 1.03

Row | Sequence | switch fluorescence ratio
79 | AGTGTAGGTC | 1.08
80 | AGTGTAGTTA | 1.01
81 | AGTGTCGATT | 1.01
82 | AGTGTCTATA | 0.968
83 | AGTGTCTCTA | 0.978
84 | AGTGTGGG | 1.01
85 | AGTGTGGTTC | 0.967
86 | AGTGTGTGAT | 1.01
87 | AGTGTGTTG | 1
88 | AGTGTTAATC | 0.993
89 | AGTGTTATGA | 1.01
90 | AGTGTTCTGC | 1.12
91 | AGTTAATGGC | 1.04
92 | AGTTACCGTT | 1.02
93 | AGTTAGGCGG | 1.01
94 | AGTTAGGTTG | 1.02
95 | AGTTATACCC | 1.03
96 | AGTTATCCCA | 0.997
97 | AGTTATGATG | 0.957
98 | AGTTATGCTC | 1.09
99 | AGTTATGGGC | 0.992
100 | AGTTATTATG | 0.995
101 | AGTTATTTAG | 0.971
102 | AGTTCACTAA | 0.992
103 | AGTTCACTAC | 1.03
104 | AGTTCCGCAC | 5.05

Row | Sequence | switch fluorescence ratio
105 | AGTTCGAAGG | 0.994
106 | AGTTCGAGTA | 0.979
107 | AGTTCGCGG | 0.971
108 | AGTTCGGAGA | 1.03
109 | AGTTCTAAGG | 1.01
110 | AGTTCTCAGC | 1.04
111 | AGTTCTCGCA | 1.06
112 | AGTTCTCTCG | 1.05
113 | AGTTGAGTCA | 0.948
114 | AGTTGCATAT | 0.999
115 | AGTTGCCCGC | 1.02
116 | AGTTGCGCTT | 0.988
117 | AGTTGGCAGT | 0.971
118 | AGTTGGGACA | 1.02
119 | AGTTGGTGAC | 0.992
120 | AGTTGTAAGT | 0.99
121 | AGTTGTAGCA | 0.991
122 | AGTTGTGCTA | 0.994
123 | AGTTGTGGAC | 1.01
124 | AGTTTAACTT | 0.979
125 | AGTTTAAGA | 0.992
126 | AGTTTATTGA | 1.02
127 | AGTTTCCGCA | 1.8
128 | AGTTTCTAAC | 1.01
129 | AGTTTTCCAA | 1.03
130 | AGTTTTGTCA | 1.01

Row | Sequence | switch fluorescence ratio
131 | ATAAAAATTA | 0.979
132 | ATAAAAATTG | 0.937
133 | ATAAAACCCT | 1.18
134 | ATAAACGCTA | 1.18
135 | ATAAAGTTTA | 0.998
136 | ATAAATAGAT | 0.982
137 | ATAAATATTC | 0.996
138 | ATAAATCCAA | 0.918
139 | ATAACACTAA | 0.977
140 | ATAACATTCC | 2.14
141 | ATAACCTCTG | 1.04
142 | ATAACGACTG | 1.46
143 | ATAACGCAC | 2.24
144 | ATAACGTGCC | 1.1
145 | ATAACTAAAA | 1.01
146 | ATAACTGCCA | 1.1
147 | ATAACTTTGA | 0.982
148 | ATAAGAGTGC | 0.997
149 | ATAAGCCTTT | 1
150 | ATAAGCGCCC | 1.24
151 | ATAAGGCCAA | 1.04
152 | ATAAGGCTCT | 1.01
153 | ATAAGGGAA | 1.01
154 | ATAAGGGGCC | 0.988
155 | ATAAGTACAG | 1.32
156 | ATAAGTTAG | 1.01

Row | Sequence | switch fluorescence ratio
157 | ATAATACTTT | 1.04
158 | ATAATATTCA | 0.977
159 | ATAATATTGC | 0.986
160 | ATAATGTCAA | 0.994
161 | ATAATTACT | 1.03
162 | ATAATTAGC | 1
163 | ATAATTATCT | 1.04
164 | ATACAAATCC | 1
165 | ATACACAAAA | 1.13
166 | ATACACCATG | 1.09
167 | ATACACCTCG | 1
168 | ATACAGGACT | 1.08
169 | ATACAGTGGC | 0.967
170 | ATACATATTC | 1.03
171 | ATACCAGGGC | 1.08
172 | ATACCAGGTA | 1.12
173 | ATACCCAGGC | 1.43
174 | ATACGCCAAC | 1.76
175 | ATACTCAGTC | 1.01
176 | ATACTCGCT | 1
177 | ATACTCTTTT | 0.993
178 | ATACTGATCA | 1.03
179 | ATACTGGCAT | 0.99
180 | ATACTTCTCG | 1.03
181 | ATACTTTATG | 1.04
182 | ATACTTTCAG | 1

Row | Sequence | switch fluorescence ratio
183 | ATAGAAGGCA | 1.01
184 | ATAGAATCGT | 0.974
185 | ATAGAATCTG | 1.01
186 | ATAGACAAGG | 0.969
187 | ATAGACGGTG | 0.959
188 | ATAGAGGTGC | 1.02
189 | ATAGAGTGAT | 0.986
190 | ATAGATAATT | 0.987
191 | ATAGATGAGA | 0.955
192 | ATAGCAAACA | 1.08
193 | ATAGCAAGGG | 1.4
194 | ATAGCAGTTG | 0.989
195 | ATAGCCGCCT | 1.05
196 | ATAGCCTAAA | 0.969
197 | ATAGCGCCAT | 0.992
198 | ATAGCGGCTC | 1.24
199 | ATAGCTCCAC | 1.08
200 | ATAGCTTGCA | 0.99
201 | ATAGGAGGT | 1.02
